# PubChem BioAssay AID504706 (National Center for Advancing Translational Sciences (NCATS), 2011)
# The campaign covered roughly 320,000 compounds. About 200 (0.062%) were called active. This list was built around the results that the source calls inconclusive (neither active nor inactive); the mix of calls is not that of the screen. Calls follow the shape of the dose curve; as a rule, active = well fitted activation curve with a large enough effect; inconclusive = small, poorly fitted or top-dose-only effect; inactive = no such curve, though single readings can be large or run the other way. No potency is given beside an inconclusive call; the fits are too rough.
# Experiment: qHTS assay for re-activators of p53 using a Luc reporter; also: nearly all actives have a fitted effect of over 45% in size
# Settings: H1299 p53-A138V BP100-luciferase reporter, luminescence, 24 h; series mostly up to 92.2 µM
# Method in brief: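 H1299 (p53-null), stable ts p53-A138V + BP100-Luc; 1000 cells/well, Opti-MEM/10% FBS; cpd 4 pt, 1:5; 24 h, 37 deg C, 5% CO2; detection reagent 10 min RT; luminescence.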
# Potency is read from the fitted curve at half-maximal effect; tags tell the direction and shape of the fitted curve.
row,Compound,Potency
1,CC(=O)Oc1ccc2c(c1)C(=O)c1ccccc1CO2,inactive
2,CCOC(=O)N/N=C/c1ccc(N(CC)CC)cc1O,"inconclusive [activator, partial curve, poor fit]"
3,Cc1ccc(C)c(NC(=O)c2cc([N+](=O)[O-])cc([N+](=O)[O-])c2)c1,"inconclusive [activator, single point]"
4,O=C(COC(=O)c1cn(-c2ccccc2)nc1-c1ccccc1)Nc1ncc(Cl)cc1Cl,inactive
5,O=C(NC1=C(Nc2ccc(Cl)cc2)C(=O)c2ccccc2C1=O)c1ccccc1,"inconclusive [activator, partial curve, poor fit]"
6,Cc1ccc(NC(=S)NC(=O)C2CC2)cc1Cl,"inconclusive [activator, partial curve, poor fit]"
7,COc1ccc(OCc2cn3c(C)cc(C)nc3n2)cc1,"inconclusive [activator, partial curve, poor fit]"
8,O=C(CSc1nnc(-c2c[nH]c3ccccc23)o1)N1CCCCC1,"inconclusive [activator, partial curve, poor fit]"
9,CN(C)S(=O)(=O)Nc1ccc2c(c1)Cc1ccccc1-2,"inconclusive [activator, single point]"
10,O=C(OCC(=O)N1CCCC1)c1ccccc1O,"inconclusive [activator, partial curve, poor fit]"
11,Cc1ccc(-c2nc(C)c(C(=O)O)s2)cc1,inactive
12,CC(=O)N(Cc1cccnc1)Cc1cc2ccc(C)cc2[nH]c1=O,inactive
13,NC(=O)c1nsc(C(=O)N(c2ccc(F)cc2)C(C(=O)NCC2CCCO2)c2c[nH]c3ccccc23)c1N (stereo not given),inactive
14,CCCc1cc(C(=O)NNC(=S)NCC2CCCO2)cs1 (stereo not given),"inconclusive [activator, full curve, poor fit]"
15,COc1cc(NC(=O)c2c(OC)cccc2OC)ccc1NC(=O)c1cc2ccccc2o1,inactive
16,COC(=O)C1CCCN1C(=O)COc1ccc(Cl)cc1Br (stereo not given),"inconclusive [activator, single point]"
17,O=C(CCn1cccn1)Nc1ccc2c(c1)OCO2,"inconclusive [activator, partial curve, poor fit]"
18,O=[N+]([O-])c1ccc2nc(-c3ccccn3)[nH]c2c1,"inconclusive [activator, full curve, poor fit]"
19,O=C(CSCc1ccccc1)N/N=C/c1ccccc1OCc1ccccc1,"inconclusive [activator, single point]"
20,Cc1ccc(NC(=O)CCS(=O)(=O)c2ccc3c(c2)NC(=O)C(C)S3)cc1Cl (stereo not given),"inconclusive [activator, single point]"
21,CCc1sc(C(=O)Nc2ccc(F)cc2C)cc1C,"inconclusive [activator, partial curve, poor fit]"
22,CCC(=O)Oc1ccc(-c2nc(-c3cccnc3)no2)cc1,"inconclusive [activator, full curve, poor fit]"
23,Cc1ccc(C)c(N=Cc2cc3c(cc2[N+](=O)[O-])OCO3)c1,inactive
24,O=C(Nc1ccc(COc2ccccc2)cc1)Nc1cccc(C(=O)O)c1,inactive

row,Compound,Potency
1,O=C(NC(=S)Nc1cccc([N+](=O)[O-])c1)c1ccccc1,"inconclusive [activator, full curve, poor fit]"
2,COc1cc(C(=O)Nc2cccc(C)c2C)ccc1OCC(=O)N1CCOCC1,inactive
3,COc1ccc(C(=O)Cn2cnc3ccccc3c2=O)cc1,"inconclusive [activator, partial curve, poor fit]"
4,Cc1ccc(-c2cc(C(=O)Nc3ccc4c(c3)OCCO4)c3ccccc3n2)cc1,"inconclusive [activator, partial curve, poor fit]"
5,Cc1cc(C(=O)CSc2nncs2)c(C)n1-c1ccc2c(c1)OCO2,"inconclusive [activator, partial curve, poor fit]"
6,O=C(c1cnn2c(C(F)F)cc(C3CC3)nc12)N1CCc2ccccc2C1,inactive
7,COc1ccc(CNC(=O)COc2ccccc2C(=O)c2cnn(-c3ccccc3)c2)cc1OC,"inconclusive [activator, full curve, poor fit]"
8,CC1(NC(=S)Nc2ccccc2)CCS(=O)(=O)C1 (stereo not given),"inconclusive [activator, single point]"
9,Cc1ccc(-c2cc(C(=O)N/N=C/c3c[nH]c4ccccc34)n[nH]2)o1,"inconclusive [activator, single point]"
10,CCc1ccc2nc(NC(=O)CN3C(=O)NC4(CCCC4)C3=O)sc2c1,"inconclusive [activator, single point]"
11,COc1ccccc1OCC(=O)N/N=C/c1c(O)ccc2ccccc12,"inconclusive [activator, partial curve, poor fit]"
12,CSc1nsc(SCC(=O)Nc2ccc(Br)cn2)n1,"inconclusive [activator, single point]"
13,CCCCN(CC)CCCNC(=S)Nc1ccc2nc(N3CCN(CC)CC3)cc(C)c2c1,"inconclusive [activator, partial curve, poor fit]"
14,COc1ccc(NC(=O)c2cc(C(C)C)on2)cc1OC,inactive
15,CSc1ccc(S(=O)(=O)NC2CCCCCC2)cc1,"inconclusive [activator, single point]"
16,CC(NCC(=O)Nc1ccccc1C(=O)NC1CC1)c1cccs1 (stereo not given),inactive
17,CCCCn1c(N)c(N(CCOC)C(=O)CSCc2ccc(C)cc2)c(=O)[nH]c1=O,inactive
18,COc1ccc(-c2cc(-c3ccccc3)no2)cc1,"inconclusive [activator, full curve, poor fit]"
19,O=C(CNC(=S)NC(=O)c1cccc([N+](=O)[O-])c1)c1ccccc1,inactive
20,COc1ccc(C2CC(c3ccc(Cl)cc3)=NN2C(C)=O)cc1 (stereo not given),inactive
21,C/C(=N\NC(=S)NCC(C)(C)C)c1cc(F)cc(F)c1O,inactive
22,O=C(NC(=S)NC1CCSC1=O)c1cccc([N+](=O)[O-])c1 (stereo not given),"inconclusive [activator, single point]"
23,COc1ccc(/C(C)=N/Nc2nccnc2Cl)cc1,"inconclusive [activator, partial curve, poor fit]"
24,COc1ccc(Nc2nc(NCc3ccco3)nc(N/N=C/c3ccc(O)cc3)n2)cc1,"inconclusive [activator, partial curve, poor fit]"

row,Compound,Potency
1,CCOC(=O)Cc1csc(NC(=O)c2ccoc2C)n1,"inconclusive [activator, single point]"
2,N=C1/C(=C/c2ccc(OCc3ccccc3)cc2)C(=O)N=C2SC(CC(=O)N3CCOCC3)=NN12,"inconclusive [activator, partial curve, poor fit]"
3,Cc1ccc2c(C(=O)CSc3ccccc3)c(C)[nH]c2c1,"inconclusive [activator, full curve, poor fit]"
4,CCn1ccnc1CNC(=O)c1ccc2oc(CCCc3ccccc3)nc2c1,"inconclusive [activator, single point]"
5,COc1ccc(N2C(=O)CC(Nc3ccc(C(=O)O)cc3)C2=O)cc1OC (stereo not given),"inconclusive [activator, partial curve, poor fit]"
6,Cn1cc([N+](=O)[O-])c(C(=O)Nc2ccc3nc(-c4ccccc4)[nH]c3c2)n1,active: 22.4 µM
7,COc1ccc(C(=O)NCCC2=CCCCC2)cc1OC,"inconclusive [activator, partial curve, poor fit]"
8,O=C(OCC(=O)N(Cc1ccccc1)Cc1ccccc1)c1cccc(O)c1,inactive
9,CCN(CC(=O)Nc1ccc2c(c1)OCCO2)C(=O)c1ccc(C(F)(F)F)cc1,"inconclusive [activator, full curve, poor fit]"
10,CC(Nc1nc(N2CCN(S(C)(=O)=O)CC2)nc2ccccc12)c1ccccc1 (stereo not given),inactive
11,CC(=O)Nc1ccc(NC(=O)CSc2ncc(C(=O)Nc3ccc(Cl)cc3)c(=O)n2C)cc1,"inconclusive [activator, single point]"
12,CCN(CC)C(=O)C1CC(c2ccc(OC)cc2)=NO1 (stereo not given),"inconclusive [activator, full curve, poor fit]"
13,CC(C)(C)C(=O)CSc1ncnc2c1cnn2-c1ccccc1,inactive
14,CCOC(=O)N1CCN(C(=O)c2ccccc2NC(=O)c2ccccc2Cl)CC1,"inconclusive [activator, partial curve, poor fit]"
15,O=C1Nc2cccnc2N(C(=O)CCl)c2ccccc21,inactive
16,O=c1oc2cc(Cl)ccc2n1CSc1nc2ccccc2s1,"inconclusive [activator, partial curve, poor fit]"
17,O=c1c2ccccc2[nH]c2ccc(F)cc12,inactive
18,COc1cc(/C=C2\SC(N3CCCCC3)=NC2=O)cc(OC)c1OC,inactive
19,Clc1ccc(N/N=C/c2cccnc2)cc1,"inconclusive [activator, full curve]"
20,O=C(c1cc(-c2ccc(Cl)cc2Cl)on1)N1CCOCC1,inactive
21,O=C(CCCOc1ccc(Cl)cc1Cl)Nc1ccccc1C(=O)O,"inconclusive [activator, full curve, poor fit]"
22,COc1ccc2nc(NC(=S)NC(=O)c3ccco3)sc2c1,inactive
